Each structure is given as a SMILES string. About 200 (0.47%) of roughly 43,000 compounds were called active. About 12% were inconclusive and are not listed. Calls follow the shape of the dose curve; as a rule, active = well fitted cell-killing curve with a large enough effect; inconclusive = small, poorly fitted or top-dose-only effect, or effect the other way; inactive = flat fitted curve, though single readings scatter. The list shows a part of the results.
% is scaled to controls: 0 for no effect and ±100 for the full control effect.

The assay in a line: Cell viability qHTS assay in S16 Pmp22-F2sN cells. Also: nearly all actives have a fitted effect of over 65% in size. The conditions noted are these: S16 Pmp22-F2sN Schwann cells viability, CellTiter-Glo, 24 h; series mostly up to 57.5 µM; activity change, negative = cytotoxicity: at the top concentration. In a few lines: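 Used to flag compounds lowering reporter output through toxicity, this quantitative HTS measures ATP-based CellTiter-Glo luminescence in S16 Pmp22-F2sN Schwann cells after 24 h compound exposure at 37C.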
Consider `Cc1cc(C)cc(NC(=O)C2CCCN(C(=O)c3cnn(-c4ccccc4)c3-n3cccc3)C2)c1` (configuration not stated), for which the “activity change, negative = cytotoxicity” value was inactive: -3.08%.

On to `O=C(CSc1nc2c([nH]c3ccccc32)c(=O)n1-c1ccc(Cl)cc1)N1CCOCC1`, for which the “activity change, negative = cytotoxicity” value is inactive: 1.65%.

As to `CCC1CCCCN1CC(=O)Nc1cc(C)c2c(=O)oc3ccccc3c2n1` (configuration not stated), the “activity change, negative = cytotoxicity” value was inactive: 7.52%.

As to `CCCOc1ccc(C(=O)N(Cc2ccc(N(C)C)cc2)CC2CCCO2)cc1` (configuration not stated), the “activity change, negative = cytotoxicity” value is inactive: -7.73%.

Consider `CC1=C(C(=O)Nc2ccccc2)C(CC(C)C)n2nc(SCc3ccccc3C)nc2N1` (configuration not stated), for which the “activity change, negative = cytotoxicity” value is inactive: 1.6%.

For the compound `O=C(c1cc2c(s1)-c1ccccc1OC2)N1CCN(c2ccccc2)CC1`, the “activity change, negative = cytotoxicity” value is inactive: 4.03%.

As for `CCc1nn(C(CC)C(=O)NCc2ccc(F)cc2)c(=O)c2cc3occc3n12` (configuration not stated), the “activity change, negative = cytotoxicity” value was inactive: -3.46%.

Turning to `COc1cc(C(=O)NCC(c2ccco2)S(=O)(=O)c2ccccc2)cc(OC)c1OC` (configuration not stated), the “activity change, negative = cytotoxicity” value was inactive: -1.44%.

For the compound `CC(=O)Nc1ccccc1-c1nc2ccccc2n(Cc2cccc(Br)c2)c1=O`, the “activity change, negative = cytotoxicity” value was inactive: 6.54%.

As for `CCOc1ccccc1NC(=O)Cn1c(=O)n(Cc2ccccc2)c(=O)c2cccnc21`, the “activity change, negative = cytotoxicity” value is inactive: -14.2%.

As for `Cc1cc(C)c(NC(=O)Cn2nnc(-c3ccccc3)n2)c(C)c1`, the “activity change, negative = cytotoxicity” value was inactive: -0.754%.

Take `CCOC(=O)C(C)NC(=O)C1CCN(c2ncnc3c2nc2n3CCCCC2)CC1` (configuration not stated): the “activity change, negative = cytotoxicity” value is inactive: 1.03%.

Take `CC1CCC(NC(=O)c2cc3c(Cl)nc4ccccc4c3s2)CC1` (configuration not stated): the “activity change, negative = cytotoxicity” value was inactive: -3.5%.

With `CCc1nnc(NC(=O)C(=O)c2cc(C)n(-c3ccccc3)c2C)s1`, the “activity change, negative = cytotoxicity” value is inactive: -15.4%.

On to `CC(C)N(Cc1ccccc1)C(=O)Cn1ncc2c([nH]c3ccccc32)c1=O`, for which the “activity change, negative = cytotoxicity” value was inactive: -1.94%.

Turning to `O=C(CN1CCCN(Cc2ccccc2Cl)S1(=O)=O)NCc1ccccc1`, the “activity change, negative = cytotoxicity” value was inactive: 1%.

Turning to `COc1ccc(NC(=O)CCS(=O)(=O)c2ccc3nc(C)sc3c2)cc1Cl`, the “activity change, negative = cytotoxicity” value was inactive: -5.54%.

On to `Cc1ccc(-n2ncc(C(=O)NCCc3c[nH]c4ccccc34)c2C2CCN(C(=O)OC(C)(C)C)CC2)cc1C`, for which the “activity change, negative = cytotoxicity” value was inactive: -3.09%.

On to `COc1ccc(NC(=O)C(Cc2ccccc2)n2cccc2)cc1OC` (configuration not stated), for which the “activity change, negative = cytotoxicity” value was inactive: -11.8%.

Take `COc1cc(-c2noc(CCC(=O)Nc3cc(C)ccc3C)n2)cc(OC)c1OC`: the “activity change, negative = cytotoxicity” value is inactive: -4.38%.

Take `Cc1ccccc1Cn1c2ccccc2c2cnn(CC(=O)NCCc3ccccc3)c(=O)c21`: the “activity change, negative = cytotoxicity” value is inactive: 7.72%.

Regarding `O=C(Cn1c(-c2cccs2)cc2cc(Cl)ccc21)N1CCN(c2ccccc2F)CC1`, the “activity change, negative = cytotoxicity” value was inactive: -4.05%.

In the case of `CC(NC(=O)CN(c1ccc(Cl)cc1Cl)S(=O)(=O)c1ccccc1)c1ccccc1` (configuration not stated), the “activity change, negative = cytotoxicity” value is inactive: -5.91%.

With `COc1ccc(C(=O)c2oc3ccccc3c2NC(=O)COc2cccc(C)c2C)cc1`, the “activity change, negative = cytotoxicity” value was inactive: -1.8%.

For the compound `CCC(=O)Nc1ccc(CC)cc1-c1nc2ccccc2n(Cc2ccccc2)c1=O`, the “activity change, negative = cytotoxicity” value was inactive: 0.56%.

`Cc1ccc(OC(=O)CSc2nnc(-c3cccs3)o2)cc1`: the “activity change, negative = cytotoxicity” value was inactive: 16.5%.

Consider `Cc1ccccc1C(=O)N(Cc1nc(-c2ccc(Cl)cc2)no1)C(C)C`, for which the “activity change, negative = cytotoxicity” value is inactive: -14.6%.

Values taken from PubChem BioAssay AID1508642 (National Center for Advancing Translational Sciences (NCATS), 2021).
